Measured values reported in PubChem BioAssay AID1346428 (National Center for Advancing Translational Sciences (NCATS), 2018).
Values joined by “and” are separate entries in the source; they are usually repeats but may differ in a detail not shown here. Equal values may be shown once. The whole screen tested about 48,000 compounds, of which about 1,200 (2.5%) were called active. Not shown: some 2% with an inconclusive outcome.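 The calls were made as follows: active = activation of at least 60% and not above a set upper limit (about 1 call in 100 departs from these limits); inconclusive = activation of 40% to 60%, or above that upper limit; inactive = activation under 40%.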 The list shows a part of the results.

target: Probable G-protein coupled receptor 32 (Homo sapiens) (UniProt O75388); experiment: qHTS for Agonists of Human Resolvin D1 Receptor DRV1; details: CHO-K1 GPR32 beta-arrestin PathHunter luminescence, 90 min; at 76.9 µM; active compounds read high; zero percent set by DMSO-only wells; also: 0% is about no effect
UniProt O75388, sequence (O75388 whole entry, looked up): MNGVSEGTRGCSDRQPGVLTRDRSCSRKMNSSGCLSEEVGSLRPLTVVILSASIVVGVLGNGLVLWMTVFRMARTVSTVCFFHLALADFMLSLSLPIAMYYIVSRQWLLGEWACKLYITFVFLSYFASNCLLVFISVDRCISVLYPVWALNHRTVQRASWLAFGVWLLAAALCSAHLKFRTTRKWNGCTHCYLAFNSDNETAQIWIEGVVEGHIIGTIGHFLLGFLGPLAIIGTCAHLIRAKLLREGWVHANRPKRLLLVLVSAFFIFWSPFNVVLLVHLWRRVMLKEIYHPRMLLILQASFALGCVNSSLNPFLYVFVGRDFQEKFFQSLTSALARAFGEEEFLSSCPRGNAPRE
Method in brief: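 Cells are plated overnight, treated with compounds in DMSO for 90 minutes at 37 °C, and developed with PathHunter detection reagent for 1 hour before luminescence is read; signal reflects beta-arrestin binding to GPR32 in engineered CHO-K1 cells.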

Structure (SMILES) | activation
COc1ccccc1NC(=O)CN1CCN(CC(=O)Nc2ccc(F)c(F)c2)CC1 | inactive: 26.2%
COc1ccc2c(c1)c(=O)c(C(=O)c1ccc(C)cc1)cn2Cc1ccccc1F | inactive: 7.72%
CCOC(=O)c1ccc(CN(Cc2ccc(Br)cc2)S(=O)(=O)c2cccc(C(F)(F)F)c2)cc1 | inactive: -3.66%
CCC(C(=O)OC)n1nnc2sc(-c3ccccc3)cc2c1=O (stereo not drawn) | inactive: 49.5%
COc1cccc(OC)c1OCCNCC1CSc2ccccc2O1 (stereo not drawn) | inactive: 10.5%
O=C(COc1ccccc1Cl)Nc1ccccc1OCc1cc(=O)n2ccccc2n1 | inactive: -10.6%
Cc1ccc(N2C(=O)CS(=O)(=O)C23C(=O)N(Cc2ccccc2F)c2ccccc23)cc1Cl (stereo not drawn) | inactive: -8.88%
CCCCN(CC)CCNc1ncnc2onc(-c3ccc(Cl)cc3)c12 | inactive: 15.2%
CN(c1ccccc1)C(CNS(=O)(=O)c1ccccc1)c1ccccc1 (stereo not drawn) | inactive: -19.1%
O=C(CN1C(=O)C2CCCCN2c2ccc(C(=O)N3CCCC3)cc21)NCc1ccccc1F (stereo not drawn) | inactive: -26.3%
Cc1cccc(NC(=O)NC2COc3ccccc3C2)c1C (stereo not drawn) | inactive: -5.3%
CNS(=O)(=O)c1cn(CC(=O)Nc2cccc(C(F)(F)F)c2)cc1S(=O)(=O)NC | inactive: -4.88%
Cc1ccc(CN(Cc2ccco2)C(=O)c2cccc(C)c2)cc1 | inactive: -5.69%
COC(=O)c1sccc1S(=O)(=O)N(CC(=O)NCc1ccc(F)cc1)c1ccc(C)c(C)c1 | inactive: 9.18%
CC(C)COc1ccc(Nc2ncnc3ccc(Br)cc23)cc1 | inactive: 9.97%
COc1ccc(Cc2nnc(C(=O)NCCCN3CCN(c4ccccc4F)CC3)o2)cc1OC | inactive: -24%
CCCCS(=N)(=O)CCC(N)C(=O)O (stereo not drawn) | inactive: 1.76%
CNS(=O)(=O)c1cn(CC(=O)N2CCN(c3ccc(C)cc3C)CC2)cc1S(=O)(=O)NC | inactive: -3.51%
CC(=O)O[C@H]1CC2(C)[C@@H](C[C@@H](O)[C@H]3[C@@]4(C)CC[C@@H](O)[C@@H](C)[C@@H]4CC[C@@]32C)C1=C(CCC=C(C)C)C(=O)O (stereo partly drawn) | inactive: 9.37%
Cc1cccc(N2CCN(C(=O)C3CCN(Cc4nc(-c5ccc(Cl)cc5)oc4C)CC3)CC2)c1C | inactive: 0.879%
COc1cc(OC)c(NC(=O)c2cc3c(s2)-c2ccc(Cl)cc2SC3)cc1Cl | inactive: -6.77%

Structure (SMILES) | activation
CCc1nn2c(-c3ccco3)ccnc2c1-c1ccccc1 | inactive: -5.61%
N=c1nc(N2CCCCC2)cc(N)n1O | inactive: -6.34% and inactive: 5.4%
CCC1CN(C(=O)N2CCC(C(=O)NCc3cc(OC)ccc3OC)CC2)c2ccccc2O1 (stereo not drawn) | inactive: -12.5%
CCOC(=O)c1cc(S(=O)(=O)Nc2ccc(OC(F)(F)F)cc2)[nH]n1 | inactive: -8.1%
COc1ccc(NC(=O)CSc2nc(-c3ccc(OC)cc3)cc(=O)[nH]2)cc1 | inactive: -1.66%
Cn1c(C(=O)NCc2ccc(F)cc2)cc2cc(S(=O)(=O)N3CCCCC3)ccc21 | inactive: -20.5%
COc1ccc(-c2cc3ccc(O)c(CN4CCN(CCO)CC4)c3oc2=O)cc1OC | inactive: 11.9%
O=C(Nc1cccc(Cl)c1Cl)c1cc2nc(-c3ccc4c(c3)OCO4)cc(C(F)(F)F)n2n1 | inactive: -20.2%
Cc1cccn2c(Nc3ccc4c(c3)OCCO4)c(-c3ccc(Br)o3)nc12 | inactive: -0.413%
O=C(NCc1ccccc1Cl)c1cnc(N2CCCCC2)c2ccccc12 | inactive: -26.1%
CCN(C(=O)Cn1c(SCC(=O)NCc2ccccc2)nc2ccccc21)c1cccc(C)c1 | inactive: 1.73%
COc1ccccc1NC(=O)c1oc2ccccc2c1NC(=O)c1ccc(S(=O)(=O)N(C)C)cc1 | inactive: -13.9%
COc1cc(-c2nc3n(n2)C(c2ccc(F)cc2)C(C(N)=O)=C(C)N3)cc(OC)c1OC (stereo not drawn) | inactive: 7.44%
COc1ccc(OC)c(CNC(=O)c2cc(-c3ccc(Cl)s3)nc3ccccc23)c1 | inactive: -15.5%
Cc1ccc(-n2nc(C(=O)NCCc3cccc(C)c3)c3c4ccccc4n(C)c3c2=O)cc1 | inactive: -7.57%
Cc1ccc(CNC(=O)c2cc(C3CC3)nc3c2c(C)nn3-c2cccc(Cl)c2C)cc1 | inactive: -3.28%
CCCN(CCC)C(=O)c1c[nH]c2ccc(S(=O)(=O)Nc3cc(C)cc(C)c3)cc2c1=O | inactive: -4.55%
Cc1ccc(NC(=O)c2nc(S(=O)(=O)Cc3cccc(C)c3)ncc2Cl)cc1 | inactive: -21.8%
Cc1ccc(N2C(=O)c3oc4cc(C)c(C)cc4c(=O)c3C2c2cccc(O)c2)nc1 (stereo not drawn) | inactive: 4.53%
COc1ccc(NC(=O)CSc2ccc(-c3cccs3)nn2)cc1 | active: 112%
COc1ccc(/C=C/C(=O)N2CCC(c3nc4ccccc4o3)CC2)cc1 | inactive: -7.37%

Structure (SMILES) | activation
CCOc1ccc(C(=O)Nc2ccc(C(=O)OCc3cc(=O)n4nc(CC)sc4n3)cc2)cc1 | inactive: -7.29%
COC(=O)c1ccc(NC(=O)N2CCC(CN3CCc4ccccc4C3)CC2)cc1 | inactive: -7.72%
CN(C)C(=O)COC(=O)Cc1ccc(OC(=O)c2ccc(N=C(N)N)cc2)cc1 | inactive: -11.3%
CCS(=O)(=O)c1nc(S(=O)(=O)c2ccc(C)cc2)c(NCc2ccc(Cl)cc2)s1 | inactive: -11.7%
CCOC(=O)c1ccc(NS(=O)(=O)c2cn(C)c(C)n2)cc1 | inactive: -3.15%
Cc1ccc(S(=O)(=O)N2CCCc3cc(NC(=O)c4ccc(F)c(F)c4)ccc32)cc1 | inactive: -14.6%
CCOc1ccc(N(CC)S(=O)(=O)N2CCCC(C(=O)Nc3ccc(NC(C)=O)cc3)C2)cc1 (stereo not drawn) | inactive: -11.7%
O=C(COc1ccc2oc3c(c2c1)CCCC3)Nc1ccc(Cl)cc1 | active: 74.5%
CCOc1ccc(-c2c(C)nn3c(-c4ccccc4)c(C(=O)NCCOC)cnc23)cc1OCC | inactive: 13.2%
CC(=O)Oc1ccc(C(c2ccc(OC(C)=O)cc2)c2ccccn2)cc1 | inactive: -15.8%
COc1cccc(C(=O)Nc2cc(-c3ccccc3)nn2-c2ccccc2)c1 | inactive: -8.98%
CN(C)S(=O)(=O)N1CCC(n2cnc3cccnc32)CC1 | inactive: -1.72%
COc1ccccc1Cn1c(CNS(=O)(=O)c2ccc(CC(C)C)cc2)nc2cccnc21 | inactive: -22.6%
Cc1ccc(CCNC(=O)c2cc3cc4cc(C)ccc4nc3s2)cc1 | inactive: -2.74%
COc1ccc(NC(=O)N(C(C)C)C2CCN(C(C)=O)CC2)c(OC)c1 | inactive: -14.9%
CCOc1ccc(NC(=O)Cn2cc(C(=O)c3ccc(OCC)cc3)c(=O)c3cc4c(cc32)OCCO4)cc1 | inactive: 12.6%
CCc1ccc(NC(=O)CC2C(=O)N(c3ccc(C)cc3)C(=O)N2CCc2ccncc2)cc1 (stereo not drawn) | inactive: -5.76%
COC(=O)Cc1c(C)c2cc3c(c(C)c2oc1=O)OCN(CCc1ccc(F)cc1)C3 | inactive: 7.45%
COc1cccc(NC(=O)CN2C(=O)COc3ccc(S(=O)(=O)N4CCCCCC4)cc32)c1 | inactive: -26.7%
O=C1C2=C(Nc3ccccc3SC2c2ccc(Cl)c(Cl)c2)c2ccccc21 (stereo not drawn) | inactive: -52.2%
COc1cccc(N2C(=O)C(CC(=O)Nc3ccc(F)cc3)N(CCC3=CCCCC3)C2=O)c1 (stereo not drawn) | inactive: -4.51%

Structure (SMILES) | activation
COc1ccc(NC(=O)CN(C)S(=O)(=O)c2ccc(C(=O)N3CCOCC3)s2)cc1 | inactive: -26.4%
Cc1cccc(C)c1OCC(=O)N1CCC(c2nc3ccccc3o2)CC1 | inactive: -7.13%
Nc1c(C(=O)NCc2ccc3c(c2)OCO3)nnn1CC(=O)Nc1ccc(Br)cc1 | active: 61.5%
Cc1ccc(Cn2cc(C(=O)c3ccc(C)cc3)c(=O)c3ccc(C)nc32)cc1 | inactive: -0.292%
CCc1ccc(-c2cc(C)no2)cc1S(=O)(=O)Nc1ccc(Cl)cn1 | inactive: -7.43%
Cc1cccc(NC(=O)CSc2cn(CC(=O)N3CCCC3)c3ccccc23)c1C | inactive: -15%
CC(=O)N1CCCc2cc(S(=O)(=O)N3CCCC(C(=O)NCc4ccccc4)C3)ccc21 (stereo not drawn) | inactive: 5.13%
Cc1cc(SCC(=O)Nc2ccc(Cl)cc2)nc2ccccc12 | inactive: -2.57%
Cn1c(=O)n(Cc2ccccc2Cl)c(=O)c2c1nc1n2CCN1c1ccccc1 | inactive: 0.744%
COc1cccc(CNC(=O)CSc2cc(C)[nH]c(=O)n2)c1 | inactive: -2.84%
Cc1c(Cl)cccc1NC(=O)CSc1nc(=O)n(Cc2ccncc2)c2c1CCC2 | inactive: -10.9%
Cc1ccc(C(=O)COC(=O)CCCC(=O)Nc2cc(C(F)(F)F)ccc2Cl)cc1C | inactive: -15.4%
Cc1oc(-c2ccc(C(=O)NCCCOC(C)C)cc2)nc1CS(=O)(=O)c1ccccc1 | inactive: 3.65%
COc1ccc(C(=O)NCc2ccc3c(c2)CCN3C(C)=O)cc1OC | inactive: -12.3%
COc1cc2c(cc1OC)n(CC(=O)Nc1ccc(C)cc1C)c(=O)n1nc(-c3ccccc3)nc21 | inactive: -4.93%
Cc1cc(Nc2ccccc2F)n2nc(Cc3ccc(Cl)cc3)nc2n1 | inactive: 14.7%
CCn1ccc2cc(S(=O)(=O)N3CCCN(C(=O)Nc4ccc(C)cc4Cl)CC3)ccc21 | inactive: -7.09%
CC(C)c1ccc(Nc2cc(C(=O)NCCCN(C)Cc3ccccc3)c3ccccc3n2)cc1 | inactive: -19.4%
Cc1cccc(NC(=O)CSc2ncc3c(n2)-c2cc(Cl)ccc2N(C)S3(=O)=O)c1C | inactive: 18.6%
COC(=O)c1ccc(C2c3c(-c4ccc(Br)cc4)n[nH]c3C(=O)N2c2ccc(Cl)cc2)cc1 (stereo not drawn) | inactive: -19.7%
